Results reported in PubChem BioAssay AID720709 (National Center for Advancing Translational Sciences (NCATS), 2013).
The campaign covered roughly 360,000 compounds. About 520 (0.14%) were called active. This list was built around the results that the source calls inconclusive (neither active nor inactive); the mix of calls is not that of the screen. Calls come from the whole dose curve; as a rule, active = well fitted inhibition curve with a large enough effect; inconclusive = small, poorly fitted or top-dose-only effect; inactive = no such curve, though single readings can be large or run the other way. No potency is given beside an inconclusive call; the fits are too rough.

Biological target: Rap guanine nucleotide exchange factor 3 (Homo sapiens) (UniProt O95398)
Chain of UniProt O95398 (O95398 whole entry, looked up): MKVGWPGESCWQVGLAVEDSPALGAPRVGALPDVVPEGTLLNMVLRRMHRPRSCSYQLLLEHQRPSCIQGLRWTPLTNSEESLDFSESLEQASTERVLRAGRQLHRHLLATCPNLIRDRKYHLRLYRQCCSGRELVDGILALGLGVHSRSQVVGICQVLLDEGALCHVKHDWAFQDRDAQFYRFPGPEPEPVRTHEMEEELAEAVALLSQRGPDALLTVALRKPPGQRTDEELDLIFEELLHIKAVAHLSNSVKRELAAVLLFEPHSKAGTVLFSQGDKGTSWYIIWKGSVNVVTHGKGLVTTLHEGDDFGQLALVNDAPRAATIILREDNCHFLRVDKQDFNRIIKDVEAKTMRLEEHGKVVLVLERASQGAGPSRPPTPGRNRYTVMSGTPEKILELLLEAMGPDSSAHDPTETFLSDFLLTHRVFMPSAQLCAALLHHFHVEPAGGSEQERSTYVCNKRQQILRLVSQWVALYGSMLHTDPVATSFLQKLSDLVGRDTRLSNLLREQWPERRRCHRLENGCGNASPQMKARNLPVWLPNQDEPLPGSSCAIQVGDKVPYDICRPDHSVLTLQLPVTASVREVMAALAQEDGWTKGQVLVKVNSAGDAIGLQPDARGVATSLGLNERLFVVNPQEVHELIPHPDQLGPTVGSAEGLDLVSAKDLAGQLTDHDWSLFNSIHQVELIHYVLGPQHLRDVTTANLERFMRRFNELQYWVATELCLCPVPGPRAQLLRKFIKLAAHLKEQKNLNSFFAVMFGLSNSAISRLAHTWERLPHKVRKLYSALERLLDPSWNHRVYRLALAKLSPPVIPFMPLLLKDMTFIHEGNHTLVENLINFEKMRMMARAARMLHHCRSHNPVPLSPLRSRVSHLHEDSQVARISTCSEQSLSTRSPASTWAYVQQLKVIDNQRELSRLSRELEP
Test: qHTS for Antagonist of cAMP-regulated guanine nucleotide exchange factor 3 (EPAC1): primary screen; note: nearly all actives have a fitted effect of over 50% in size;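 for activity change, negative = inhibition: plate controls were vehicle for no effect and positive control for full effect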
Conditions: EPAC1 GEF assay, Rap1b-BODIPY-GDP exchange fluorescence; activity change, negative = inhibition: at 115 µM (top of the series)
Potency is the fitted concentration of half-maximal effect; tags give direction and shape of the fitted curve.

Compound | Potency | activity change, negative = inhibition
CCc1nc2ccc(C(=O)NCCNC(C)=O)cn2c1N(CCC(C)C)CCN(C)C | inconclusive [inhibitor, single point] | 
Cc1ccc(C2=N/C(=C\c3c(C)nn(-c4ccccc4)c3N3CCCC3)C(=O)O2)cc1 |  | inactive: 10.6%
Cc1cccc(C)c1NC(=O)CN(C)CC(=O)Nc1sc2c(c1C(N)=O)CCC2 | inconclusive [inhibitor, single point] | 
NS(=O)(=O)c1cccc(NC(=O)c2cccc(-c3ccc(O)cc3)c2)c1 | inconclusive [inhibitor, full curve, poor fit] | 
O=Cc1cc(N=Nc2ccccc2Cl)ccc1O | inconclusive [inhibitor, full curve] | 
CC(Oc1ccc(Cl)cc1)C(=O)Nc1ccc(S(=O)(=O)Nc2nccs2)cc1 (stereo not drawn) | inconclusive [inhibitor, single point] | 
NS(=O)(=O)c1ccc(NC2=CC(=O)C(=O)c3ccccc32)cc1 | inconclusive [inhibitor, partial curve] | 
Cc1cccc(CN2C(=O)/C(=C\c3ccc(C(=O)NCCN4CCOCC4)cc3)Sc3ccccc32)c1 | inconclusive [inhibitor, partial curve] | 
Fc1ccccc1-c1nnc2c3ccccc3nc(N3CCOCC3)n12 |  | inactive: -10.3%
N#CCc1nn2c3c(cnc2c1C#N)C(=O)CCC3 |  | inactive: -2.24%
Cc1cccc(C)c1Nc1nnc(SCC(=O)NC(=O)c2cccn2C)s1 | inconclusive [inhibitor, partial curve, poor fit] | 
O=C1NC(=O)/C(=C/c2cccc3ccccc23)S1 | inconclusive [inhibitor, partial curve] | 
Cc1ccc(C2C(/C=C3/SC(=S)NC3=O)=C(c3cccs3)Oc3ccccc32)cc1 (stereo not drawn) | inconclusive [inhibitor, single point] | 
COc1ccc(Nc2nc(C)nc3c2oc2ccccc23)cc1 | inconclusive [inhibitor, single point] | 
O=C1c2ccc(Oc3ccc([N+](=O)[O-])cc3)cc2C(=O)N1CCO | inconclusive [inhibitor, single point] | 
COCCOC(=O)c1[nH]c2c(c1C)C(=O)C(C(=O)OC)C(C)C2 (stereo not drawn) |  | inactive: 1.36%
CC(C)c1nnc(NC(=O)c2nc(S(=O)(=O)Cc3ccccc3)ncc2Cl)s1 | inconclusive [inhibitor, partial curve, poor fit] | 
CCOC(=O)c1ccc(NC(=O)CSc2nc(N)c(NC(=O)c3ccc(Br)o3)c(=O)[nH]2)cc1 | inconclusive [inhibitor, partial curve] | 
